From the supplement of paper PMC4967469
The IC50 comes from the fitted curve, where viability falls to half of the control; fits outside the tested doses are given as limits. AUC, from the same fit, is the share of area under the viability curve across the 256-fold dose range: 1 means no effect, lower means more sensitive. For part of these data: Where the top dose is marked as inferred, it is not printed in the source and was worked back from the curve model. For part of these data: Where an entry number is given, a second screen of the drug exists; the two often differ.

Key:
Experiment in all cases: Viability of human cancer cell lines after 72 h of drug (GDSC screen)
MG-132 = compound: CC(C)C[C@@H](C=O)NC(=O)[C@H](CC(C)C)NC(=O)[C@H](CC(C)C)NC(=O)OCc1ccccc1 [MG-132]; conditions: top dose 1 µM
Protocol: (§1)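 Human cancer cell lines in 384-well plates, medium with 10% serum, drug for 72 h over a 256-fold dose range (nine 2-fold or five 4-fold steps up to the top dose). Adherent lines were fixed and stained with the nucleic acid dye Syto60, suspension lines read with resazurin; signal relative to control wells, capped at 0 and 100%. One two-parameter sigmoid per drug and line, fitted in a mixed model over all curves with the slope shared within a line.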

AR-42 = compound: CC(C)[C@H](C(=O)Nc1ccc(C(=O)NO)cc1)c1ccccc1 [AR-42]; conditions: top dose 5.12 µM; top dose inferred
Protocol: as §1

Pazopanib = compound: Cc1ccc(Nc2nccc(N(C)c3ccc4c(C)n(C)nc4c3)n2)cc1S(N)(=O)=O [Pazopanib]; conditions: top dose 8 µM
Protocol: as §1

GDC0941 = compound: CS(=O)(=O)N1CCN(Cc2cc3nc(-c4cccc5[nH]ncc45)nc(N4CCOCC4)c3s2)CC1 [GDC0941]; conditions: top dose 4 µM; screen: GDSC drug entry 1527; top dose inferred
Protocol: as §1

CEP-701 = compound: C[C@]12O[C@H](C[C@]1(O)CO)n1c3ccccc3c3c4c(c5c6ccccc6n2c5c31)CNC4=O [CEP-701]; conditions: top dose 2 µM; top dose inferred
Protocol: as §1

SB 216763 = compound: Cn1cc(C2=C(c3ccc(Cl)cc3Cl)C(=O)NC2=O)c2ccccc21 [SB 216763]; conditions: top dose 10 µM; top dose inferred
Protocol: as §1

Row | Cell Line | AUC (MG-132) | IC50 (MG-132) | AUC (AR-42) | IC50 (AR-42) | AUC (Pazopanib) | IC50 (Pazopanib) | AUC (GDC0941) | IC50 (GDC0941) | AUC (CEP-701) | IC50 (CEP-701) | AUC (SB 216763) | IC50 (SB 216763)
1 | NCI-H2196 (small cell lung carcinoma, adherent) | 0.931 | > 1000 nM | 0.49 | 300 nM | 0.97 | > 8 µM | – | – | – | – | – | –
2 | OMC-1 (cervix, adherent) | 0.954 | > 1000 nM | 0.645 | 822 nM | 0.985 | > 8 µM | 0.795 | 1950 nM | 0.805 | 1060 nM | – | –
3 | OS-RC-2 (kidney, adherent) | 0.738 | 415 nM | 0.668 | 1170 nM | – | – | 0.722 | 1440 nM | 0.647 | 384 nM | 0.935 | > 10 µM
4 | RKO (large intestine, adherent) | 0.757 | 322 nM | 0.565 | 475 nM | – | – | – | – | 0.636 | 287 nM | 0.984 | > 10 µM
5 | RPMI-8226 (myeloma, suspension) | 0.988 | > 1000 nM | 0.407 | 185 nM | – | – | – | – | – | – | 0.99 | > 10 µM
6 | RS4-11 (leukaemia, suspension) | 0.984 | > 1000 nM | 0.235 | 59.3 nM | 0.872 | 6.52 µM | 0.846 | 2550 nM | – | – | – | –
7 | RXF393 (kidney, adherent) | 0.716 | 328 nM | 0.555 | 479 nM | 0.854 | > 8 µM | 0.793 | 2670 nM | 0.747 | 866 nM | – | –
8 | SCC-3 (B-cell lymphoma, suspension) | 0.735 | 233 nM | 0.521 | 359 nM | 0.981 | > 8 µM | – | – | – | – | – | –
9 | SKM-1 (haematopoietic neoplasm, suspension) | 0.94 | > 1000 nM | – | – | – | – | 0.673 | 803 nM | – | – | – | –
10 | SU-DHL-1 (anaplastic large cell lymphoma, suspension) | 0.893 | 610 nM | 0.754 | 1320 nM | 0.994 | > 8 µM | – | – | – | – | – | –
11 | SU-DHL-8 (B-cell lymphoma, suspension) | 0.72 | 250 nM | 0.192 | 42.2 nM | 0.651 | 1.27 µM | 0.939 | > 4000 nM | – | – | – | –
12 | SW872 (soft tissue, adherent) | 0.728 | 258 nM | 0.56 | 459 nM | 0.982 | > 8 µM | 0.654 | 637 nM | – | – | – | –
13 | TALL-1 (T-cell lymphoblastic leukaemia, suspension) | 0.989 | > 1000 nM | 0.521 | 365 nM | 0.989 | > 8 µM | – | – | – | – | – | –
14 | TC-YIK (cervix, suspension) | 0.973 | > 1000 nM | – | – | – | – | 0.752 | 1170 nM | 0.632 | 274 nM | 0.991 | > 10 µM
15 | TE-441-T (rhabdomyosarcoma, adherent) | 0.975 | > 1000 nM | – | – | 0.989 | > 8 µM | – | – | – | – | – | –
16 | THP-1 (acute myeloid leukaemia, suspension) | 0.991 | > 1000 nM | – | – | – | – | 0.916 | > 4000 nM | 0.756 | 623 nM | 0.991 | > 10 µM
17 | UACC-812 (breast, adherent) | 0.937 | > 1000 nM | 0.665 | 902 nM | 0.987 | > 8 µM | – | – | – | – | – | –
18 | UM-UC-3 (bladder, adherent) | – | – | 0.673 | 937 nM | 0.946 | > 8 µM | 0.818 | 2080 nM | 0.859 | 1500 nM | 0.988 | > 10 µM
19 | UMC-11 (lung carcinoid, adherent) | – | – | 0.338 | 120 nM | 0.961 | > 8 µM | 0.971 | > 4000 nM | 0.795 | 818 nM | 0.991 | > 10 µM
20 | VMRC-RCZ (kidney, adherent) | – | – | 0.59 | 590 nM | 0.973 | > 8 µM | 0.809 | 2510 nM | 0.488 | 115 nM | 0.968 | > 10 µM
21 | WM35 (melanoma, adherent) | – | – | 0.476 | 274 nM | 0.962 | > 8 µM | 0.763 | 1450 nM | 0.674 | 383 nM | 0.963 | > 10 µM
22 | WM278 (melanoma, adherent) | – | – | 0.792 | 2660 nM | 0.978 | > 8 µM | 0.778 | 1840 nM | 0.577 | 209 nM | 0.905 | > 10 µM
23 | WM793B (melanoma, adherent) | – | – | 0.728 | 1540 nM | 0.858 | 7.72 µM | 0.873 | > 4000 nM | 0.694 | 467 nM | 0.945 | > 10 µM
24 | WM1552C (melanoma, adherent) | – | – | 0.62 | 689 nM | 0.919 | > 8 µM | 0.838 | 2740 nM | 0.889 | > 2000 nM | 0.98 | > 10 µM
25 | WM-115 (melanoma, adherent) | – | – | 0.622 | 751 nM | 0.776 | 3.95 µM | 0.802 | 2500 nM | 0.834 | 1730 nM | 0.945 | > 10 µM
26 | YAPC (pancreas, adherent) | – | – | 0.877 | > 5120 nM | 0.957 | > 8 µM | 0.827 | 3300 nM | 0.876 | > 2000 nM | 0.983 | > 10 µM
27 | huH-1 (liver, adherent) | – | – | 0.794 | 3000 nM | 0.965 | > 8 µM | 0.876 | > 4000 nM | 0.582 | 221 nM | 0.984 | > 10 µM
